{
  "source": "patent US9993534B2",
  "about": "“Method of treating fungal infection” (Wisconsin Alumni Research Foundation, priority 2013, dated 2018)",
  "key": {"1807 cells": {"test_system": "1807 cells", "assay": "In vivo activation and proliferation of adoptively transferred 1807 cells after vaccination", "text": "To assess the T helper cytokine phenotype of Calnexin-specific CD4^+ T cells after vaccination with Calnexin and various adjuvants, we transferred 10^6 naïve 1807 Tg cells into C57BL/6 wild-type mice before vaccination. On the same day, recipients were vaccinated, boosted two weeks later and challenged two weeks after the boost.\nTo investigate whether rCalnexin induces activation and proliferation of 1807 cells in vivo, we adoptively transferred 1807 Tg T cells into naïve wild-type recipient mice prior to vaccination."}, "1807 T cells": {"test_system": "1807 T cells", "assay": "Stimulation of 1807 T cells in vitro (BMDC co-culture; IFN-γ ELISA, activation markers by flow cytometry)", "conditions": "for activation of 1807 T cells: in vitro, BMDC co-culture three days, flow cytometry (reduced CD62L, increased CD44)", "text": "Eluate #1 was applied to a Gel-free 8100 fractionation system (Protein Discovery, Knoxville, Tenn.), and separated on a 10% Tris-Acetate cartridge. Fractions were collected that corresponded to separately eluted MW markers. These fractions were surveyed for protein content by PAGE analysis and silver stain.\nTo test the antigenic properties of the Calnexin protein and peptides we loaded bone marrow derived dendritic cells (BMDC) with the respective antigens and cultured them with naïve 1807 T cells to assess T-cell activation and cytokine production. After three days of co-culture, the cell culture supernatants were harvested and analyzed for cytokines by ELISA and 1807 T cells stained for the activation markers CD44 and CD62L (Wuthrich, Ersland, et al., 2012). In some experiments, the Blastomyces CW/M-reactive T-cell clone #5, whose TCR was cloned to generate 1807 transgenic mice (Wuthrich, Filutowicz, et al., 2007), was used as a reporter T-cell to identify the presence of the antigen. Cell-culture supernatants were generated in 96-well plates in 0.2 ml containing 1×10^5 BMDC, 0.05 to 10 μg/ml of CW/M antigen (Wuthrich, Filutowicz, et al., 2000), 0.05 to 50 μg/ml Calnexin and Drk1 (as a negative control) (Nemecek, Wuthrich, et al., 2006) and 0.001 to 100 μM Calnexin peptides #1-10 (FIG. 6). Supernatants were collected after 72 hours of co-culture. IFN-γ and IL-17A were measured by ELISA (R&D System, Minneapolis, Minn.) according to manufacturer specifications (detection limits were 0.05 ng/ml)."}},
  "data": [
    {"sequence": "LVVKNPAAHHAIS [Peptide 1]", "values": [
      {"measurement": "in vivo activation and proliferation of 1807 cells", "setting": "1807 cells", "value": "In vivo activation of 1807 T cells"},
      {"measurement": "IFN-γ production by 1807 T cells", "setting": "1807 T cells; co-culture with antigen-loaded BMDC, supernatant after 72 hours, ELISA", "value": "stimulated the production of IFN-γ by 1807 cells in a dose dependent manner"},
      {"measurement": "activation of 1807 T cells", "setting": "1807 T cells", "value": "strongly activated"},
      {"measurement": "activation of 1807 T cells", "setting": "1807 T cells; listed as Calnexin peptide 1", "value": "In vitro activation of 1807 T cells"}
    ]}
  ]
}
